PubChem BioAssay AID588453 (National Center for Advancing Translational Sciences (NCATS), 2011)
The whole screen tested about 390,000 compounds, of which about 4,000 (1%) were called active. Inconclusive means that the source gave no clear call. Such entries were picked first, then a sample of the others. Calls come from the whole dose curve; as a rule, active = well fitted inhibition curve with a large enough effect; inconclusive = small, poorly fitted or top-dose-only effect; inactive = no such curve, though single readings can be large or run the other way. A potency beside an inconclusive call is a rough fit, not a confirmed value.

target: Thioredoxin reductase 1, cytoplasmic (Rattus norvegicus) (UniProt O89049); assay: qHTS Assay for Inhibitors of Mammalian Selenoprotein Thioredoxin Reductase 1 (TrxR1): qHTS; details: recombinant rTrxR1, NADPH fluorescence consumption, selenite substrate; series mostly up to 114 µM; activity change, negative = inhibition: at the top concentration; note: nearly all actives have a fitted effect of over 65% in size
Outline: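 Rat TrxR1 (90 nM in the dispensed reagent) was pre-reduced with 400 uM NADPH for 5 min at room temperature, then incubated with compound for 15 min. After 400 uM selenite was added, NADPH fluorescence (Ex 340/Em 450 nm) was followed for 8 min.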
% is set by controls: 0 for no effect and ±100 for the full control effect; potency is the fitted concentration of half-maximal effect; tags give direction and shape of the fitted curve.

UniProt O89049, sequence (O89049 whole entry, looked up): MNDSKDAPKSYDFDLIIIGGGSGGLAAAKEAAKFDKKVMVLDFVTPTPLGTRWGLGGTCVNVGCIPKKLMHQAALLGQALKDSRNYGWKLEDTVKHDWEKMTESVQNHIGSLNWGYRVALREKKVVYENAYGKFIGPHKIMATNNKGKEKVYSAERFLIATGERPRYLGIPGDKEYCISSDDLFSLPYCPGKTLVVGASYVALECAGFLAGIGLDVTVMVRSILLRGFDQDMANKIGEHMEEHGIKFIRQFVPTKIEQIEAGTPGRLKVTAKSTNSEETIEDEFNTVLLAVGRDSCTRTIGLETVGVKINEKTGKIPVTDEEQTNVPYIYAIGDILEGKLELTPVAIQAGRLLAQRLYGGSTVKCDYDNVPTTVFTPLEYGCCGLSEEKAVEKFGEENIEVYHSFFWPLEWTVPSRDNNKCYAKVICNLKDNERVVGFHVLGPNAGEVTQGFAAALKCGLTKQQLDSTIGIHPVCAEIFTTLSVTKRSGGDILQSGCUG

Row | SMILES | Potency | activity change, negative = inhibition
1 | CCC(=O)c1cc2c(C)cc(=O)oc2c(C)c1OC(C)=O | inconclusive: 44.7 µM [inhibitor, partial curve] | –
2 | CC1(C)CC(NS(=O)(=O)c2ccc(C(C)(C)C)cc2)CC(C)(C)N1 | – | inactive: 21.9%
3 | N#CC1=C(N)Oc2c(ccc3ccccc23)C1c1cccs1 (stereo unspecified) | inconclusive: 79.4 µM [inhibitor, single point] | –
4 | CCc1cccc(CC)c1NC(=O)CSc1nc2ccc(N3C(=O)C4C(C3=O)[C@H]3C=C[C@@H]4C3)cc2s1 (stereo partly specified) | – | inactive: -5.6% [at 57.1 µM]
5 | Cc1ccc(NCC(=O)N/N=C\C(Br)=C\c2ccccc2)cc1 | inconclusive: 25.1 µM [inhibitor, full curve] | –
6 | COc1ccc(NC(=O)c2c(NCc3cccs3)sc3c2CCCCC3)c(OC)c1 | inconclusive: 31.6 µM [inhibitor, single point] | –
7 | CC(=O)n1ccnc1 | – | inactive: 11.8%
8 | CC(=O)Nc1cccc(C(=O)/C=C/c2cccs2)c1 | inconclusive: 79.4 µM [inhibitor, single point] | –
9 | CCOc1ccc(OCC)c(Nc2nc3ccc(C(=O)c4ccccc4)cc3n3cnnc23)c1 | – | inactive: 41.3%
10 | C/C=C/NNC(=O)Cc1ccc(OC)cc1 | inconclusive: 44.7 µM [inhibitor, partial curve] | –
11 | C/C(=N\NC(=O)Cc1ccccc1)c1cccs1 | – | inactive: 24.3%
12 | CCOC(=O)c1ccc(N2C(=O)c3n[nH]c(-c4cccs4)c3C2c2ccc(OC)cc2OC)cc1 (stereo unspecified) | – | inactive: 16.6%
13 | Oc1ccccc1-c1nnc(COc2ccccc2)o1 | – | inactive: 15% [at 57.1 µM]
14 | COc1ccc(CN2C=C3C(=O)C(C)(OC(=O)CCc4ccccc4)C(=O)C=C3C=C2c2ccc(C#N)cc2)cc1 (stereo unspecified) | inconclusive: 70.8 µM [inhibitor, partial curve] | –
15 | COC(=O)CC1C(=O)NCCN1C(=O)CSc1nc2ccc([N+](=O)[O-])cc2s1 (stereo unspecified) | inconclusive: 31.6 µM [inhibitor, partial curve, poor fit] | –
16 | CCN1CCN(c2ccc(NC(=O)COc3ccc(Cl)cc3C)cc2)CC1 | – | inactive: 33.4%
17 | Cc1cc(NC(=O)C2CCCN(S(=O)(=O)c3cn(C)cn3)C2)ccc1Br (stereo unspecified) | – | inactive: -11.2% [at 57.1 µM]
18 | C#CCOCCOCCOCCNc1nc(N2CCN(C(=O)[C@H]([C@@H](C)CC)n3cc([C@@H](N)CC(C)C)nn3)CC2)nc(N2CCN(C(=O)[C@H]([C@@H](C)CC)n3cc([C@@H](N)CC(C)C)nn3)CC2)n1 | inconclusive: 39.8 µM [inhibitor, partial curve] | –
19 | COc1ccccc1NCC(=O)c1ccc(C)c(C)c1 | – | inactive: 20.6%
20 | O=C(CN(c1ccc2c(c1)OCCO2)S(=O)(=O)c1ccccc1)N1CCN(Cc2ccccc2)CC1 | – | inactive: 4.21% [at 57.1 µM]
21 | CCN1C(=O)/C(=C/C=C2/CCCN2C)OC1=S | inconclusive: 44.7 µM [inhibitor, partial curve] | –
22 | CCOC(=O)c1cc2nc(-c3ccco3)cc(C(F)(F)F)n2n1 | inconclusive: 50.1 µM [inhibitor, partial curve, poor fit] | –

Row | SMILES | Potency | activity change, negative = inhibition
23 | C#CCOCCOCCOCCNc1nc(N2CCN(C(=O)[C@H]([C@@H](C)CC)n3cc([C@@H](N)CC(C)C)nn3)CC2)nc(N2CCN(C(=O)[C@H](Cc3ccc(O)cc3)n3cc([C@@H](N)CC(C)C)nn3)CC2)n1 | inconclusive: 28.2 µM [inhibitor, single point] | –
24 | O=C(Nc1nc(-c2ccco2)c(-c2ccco2)s1)C1CC(=O)N(c2ccc3c(c2)OCCO3)C1 (stereo unspecified) | inconclusive: 10 µM [inhibitor, partial curve, poor fit] | –
25 | COCCN(C(=O)c1cc(-c2ccco2)nc2ccccc12)c1c(N)n(Cc2ccccc2)c(=O)[nH]c1=O | inconclusive: 56.2 µM [inhibitor, partial curve, poor fit] | –
26 | CCOc1ccc(NC(=O)c2c(NCc3cccs3)sc3c2CCCCC3)cc1 | inconclusive: 25.1 µM [inhibitor, single point] | –
27 | O=[N+]([O-])c1ccc(S(=O)(=O)CC2CSc3nc4ccccc4n32)cc1 (stereo unspecified) | inconclusive: 56.2 µM [inhibitor, partial curve, poor fit] | –
28 | O=C(c1cccc(S(=O)(=O)N2CCc3ccccc3C2)c1)N1CCN(c2ccc(O)cc2)CC1 | – | inactive: 3.81%
29 | CC(C)Cn1c(C(C)C)nc([N+](=O)[O-])c1S(=O)(=O)c1ccc(F)cc1 | inconclusive: 0.891 µM [inhibitor, full curve, poor fit] | –
30 | COc1ccc(C(=O)NC(=S)Nc2cccc(NC(=O)c3ccco3)c2)cc1[N+](=O)[O-] | inconclusive: 79.4 µM [inhibitor, partial curve] | –
31 | Cc1ccc(S(=O)(=O)N/N=C\c2ccc(Cl)c([N+](=O)[O-])c2)cc1 | inconclusive: 15.8 µM [inhibitor, full curve] | –
32 | COc1ccc(NC2CC(=O)N(C)C2=O)cc1 (stereo unspecified) | inconclusive: 44.7 µM [inhibitor, partial curve, poor fit] | –
33 | COc1cccc(OCc2cc(C3Nc4ccccc4C(=O)N3c3ccccc3)ccc2OC)c1 (stereo unspecified) | – | inactive: 41.3%
34 | COC(=O)CN1C(=O)[C@H]2[C@@H](c3ccc(C)o3)N3C(=O)CN(Cc4ccccn4)C(=O)[C@@]3(C)[C@H]2C1=O | inconclusive: 56.2 µM [inhibitor, partial curve, poor fit] | –
35 | CCOC(=O)/C=C/C(=O)OCc1csc(CC(=O)Nc2ccccc2C)n1 | inconclusive: 50.1 µM [inhibitor, partial curve] | –
36 | Cn1ncc(Oc2ccc([N+](=O)[O-])cc2)c(Cl)c1=O | – | inactive: 10.7% [at 57.1 µM]
37 | CN(C)C(=S)Nc1nc2ccccc2s1 | inconclusive: 20 µM [inhibitor, partial curve, poor fit] | –
38 | CC(C)(C)C1C/C(=C/c2ccco2)C(=O)/C(=C/c2ccco2)C1 (stereo unspecified) | inconclusive: 89.1 µM [inhibitor, single point] | –
39 | CCN1CCCC1CNC(=O)c1cc(S(=O)(=O)CC)c(N)cc1OC (stereo unspecified) | inconclusive: 21.2 µM [inhibitor, partial curve, poor fit] | –
40 | O=C(Nc1c(C(=O)Nc2cccc(C(F)(F)F)c2)oc2ccccc12)c1cc(=O)c2ccccc2o1 | – | inactive: 33.6%
41 | O=C(c1ccc(Cl)s1)N1CCN(c2nc3ccccc3s2)CC1 | – | inactive: -1.68%
42 | CCn1c(SCC(=O)N2CCN(c3ccccc3)CC2)nnc1-c1ccoc1C | inconclusive: 28.2 µM [inhibitor, single point] | –
43 | ClCc1csc(-c2ccc(Cl)cc2)n1 | inconclusive: 70.8 µM [inhibitor, partial curve] | –
44 | CCOc1ccc(CCNC(=O)COC(=O)/C=C/c2ccco2)cc1OCC | inconclusive: 79.4 µM [inhibitor, single point] | –

Row | SMILES | Potency | activity change, negative = inhibition
45 | O=C(COC(=O)c1ccc2c(c1)OCO2)NC1CCS(=O)(=O)C1 (stereo unspecified) | active: 79.4 µM | –
46 | CCOc1ccccc1OCC(=O)NCc1ccco1 | active: 28.2 µM | –
47 | COc1ccccc1N1CCN(c2cc(=O)n(-c3ccccc3Cl)c(=O)[nH]2)CC1 | inconclusive: 17.8 µM [inhibitor, full curve] | –
48 | CCOC(=O)c1sc2ccccc2c1S(=O)(=O)NCc1ccc(F)cc1 | – | inactive: 16% [at 57.1 µM]
49 | COc1ccc(OCCC(=O)OCC(=O)NCc2ccco2)cc1 | inconclusive: 39.8 µM [inhibitor, partial curve, poor fit] | –
50 | CCOC(=O)/C=C/C(=O)OCC(=O)Nc1ccc([N+](=O)[O-])cc1 | inconclusive: 7.94 µM [inhibitor, partial curve, poor fit] | –
51 | CN(C)c1ccc(/C=N/Nc2ccc(-n3ccnc3)nn2)cc1 | – | inactive: 2.21% [at 57.1 µM]
52 | Cc1ccc2nc(/C(C#N)=C\c3ccc([N+](=O)[O-])o3)[nH]c2c1 | inconclusive: 2.82 µM [inhibitor, full curve] | –
53 | Cc1c(NC2=C(Cl)C(=O)N(c3ccccc3)C2=O)c(=O)n(-c2ccccc2)n1C | active: 3.16 µM | –
54 | COc1cccc(CN2CCNC(=O)C2CC(=O)N(C)C2CCCCC2)c1OC (stereo unspecified) | inconclusive: 5.01 µM [inhibitor, full curve, poor fit] | –
55 | CC1CCC(NC(=O)CCS(=O)(=O)c2ccc3c(c2)NC(=O)CO3)CC1 (stereo unspecified) | – | inactive: 19.2% [at 57.1 µM]
56 | COc1ccc(OC)c(C2=NS(=O)(=O)N(C)C(C(=O)NCc3ccco3)=C2)c1 | inconclusive: 70.8 µM [inhibitor, partial curve, poor fit] | –
57 | O=C(CCCc1ccccc1)NC1CC1 | inconclusive: 79.4 µM [inhibitor, partial curve, poor fit] | –
58 | Cc1cc(-n2c(C)cc(C(=O)COc3cccnc3[N+](=O)[O-])c2C)no1 | inconclusive: 79.4 µM [inhibitor, partial curve, poor fit] | –
59 | Cc1c(N2C(=O)/C(=C\c3ccc(N(C)C)cc3)N(C)C2=S)c(=O)n(-c2ccccc2)n1C | inconclusive: 89.1 µM [inhibitor, single point] | –
60 | N#C/C(=C\c1c(F)cccc1Cl)C(=O)NC1CC1 | inconclusive: 39.8 µM [inhibitor, partial curve, poor fit] | –
61 | Fc1ccccc1CNc1ncnc2sccc12 | – | inactive: 7.6%
62 | CC1CCC/C(=C\Nc2ccc(C(=O)O)c(O)c2)C1=O (stereo unspecified) | inconclusive: 39.8 µM [inhibitor, partial curve] | –
63 | C/C(CC(=O)Nc1cc(C)ccn1)=N\NC(=O)c1cccc(C)c1 | – | inactive: 20%
64 | CNC(=S)NNC(=O)c1ccc(=O)n(Cc2cccc(C(F)(F)F)c2)c1 | – | inactive: 12.6% [at 57.1 µM]
65 | COc1ccc(CCNC(=O)c2cnc3sc(N4CCC(C)CC4)nn3c2=O)cc1OC | – | inactive: 24.1% [at 57.1 µM]
66 | O=C(CSC1=Nc2ccccc2C2=NC(CC(=O)NC3CCCCC3)C(=O)N12)NCc1ccco1 (stereo unspecified) | inconclusive: 79.4 µM [inhibitor, partial curve] | –
